# Measurements reported in the supplement of paper PMC3724861.
# This is one part of the list.
# System: T1, Caupolican (Caup) homeodomain DNA-binding domain
# T1 sequence: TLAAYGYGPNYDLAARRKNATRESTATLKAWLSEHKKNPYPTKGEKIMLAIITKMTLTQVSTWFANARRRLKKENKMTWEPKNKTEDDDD
# Test: PBM E-score (8-mer, recovered from the published 9-mer minima) (E-score (dimensionless, -0.5 to 0.5)); Drosophila protein; higher = stronger relative binding preference, active = 0.31 or more
# In short: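 Caup's homeodomain DNA-binding domain (residues 214-303) was produced by in vitro transcription and translation and applied at 100 nM to custom-designed protein binding microarrays. Each value is an enrichment score giving relative binding preference for a short DNA word; higher means stronger. Published 9-mer scores were the minimum of their two constituent 8-mer scores, and the 8-mer values were recovered from those minima. A cutoff of 0.31 marks candidate binding sequences.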
row,Sequence,PBM E-score
1,AAGTTGAT,inactive: 0.171
2,GAGGGTGC,inactive: -0.0918
3,CGCATGAC,inactive: -0.0417
4,TCGTGCAA,inactive: 0.132
5,AGCCGCTA,inactive: -0.291
6,CATCAGGA,inactive: 0.0366
7,CTGGCCCA,inactive: -0.277
8,AGGTGTCG,inactive: 0.107
9,CAACTTAC,inactive: 0.14
10,AATCAAGC,inactive: 0.051
11,AGACACCC,inactive: -0.00486
12,CGCTCCAG,inactive: -0.139
13,GAGTGCGC,inactive: -0.162
14,ATCACGTG,inactive: 0.066
15,ATAATATA,inactive: 0.265
16,AATTAATA,≥ 0.238
17,ACGCTGTG,inactive: 0.0319
18,GACTTAAC,inactive: 0.0505
19,ACAACAAC,active: 0.36
20,ACTCAAAT,≥ 0.132
21,GCACGGCA,inactive: -0.059
22,AAATTCCA,inactive: 0.132
23,TCAGAGCA,inactive: -0.0887
24,GGGAGGTA,inactive: -0.158
25,ATATGATA,inactive: 0.157

row,Sequence,PBM E-score
1,AGACGTTG,inactive: -0.0884
2,ACCGGAAC,inactive: 0.0421
3,ACCCGTTG,inactive: 0.0193
4,CTTTGCAA,inactive: -0.0379
5,GACTCCGC,inactive: -0.113
6,CCTCTCAG,inactive: -0.194
7,GGCGCTAA,inactive: -0.171
8,GTCGGGCA,inactive: -0.121
9,ACCTAGAG,inactive: -0.0879
10,ACTTTAGG,inactive: 0.0104
11,AAATCGAT,inactive: 0.137
12,CACAGGAC,inactive: 0.0267
13,CAAGCGCC,inactive: -0.176
14,AGGGTTGC,inactive: -0.0679
15,AGTAGTTC,inactive: 0.144
16,ATTATTGA,inactive: 0.124
17,CCCCGTAA,inactive: -0.0757
18,ATGAAACG,inactive: -0.0209
19,GAGCCTAC,inactive: -0.0759
20,CCAGCCAC,inactive: -0.0929
21,AGAATGCT,inactive: 0.0061
22,TACATGGA,active: 0.413
23,AAATGTTG,inactive: 0.201
24,AAGAGAGG,inactive: -0.0847
25,GAAAAGTC,inactive: 0.00369

row,Sequence,PBM E-score
1,ATCTCACA,inactive: 0.0963
2,CCAATATC,inactive: 0.0605
3,ACCTACCC,inactive: -0.14
4,ATAATTCC,inactive: 0.119
5,GTCCGGGA,inactive: -0.0236
6,TAACATTA,≥ 0.291
7,AGCAAAGC,inactive: -0.129
8,CCTCACGA,inactive: -0.0936
9,TGCGAAAA,inactive: 0.0415
10,CTCAATGA,inactive: 0.0148
11,CCCCGTAG,inactive: -0.229
12,AGTGGCAG,inactive: -0.107
13,ATTATATG,inactive: 0.222
14,GGTTCTCA,inactive: 0.0149
15,CACTTCGG,inactive: -0.119
16,CATCCAAA,inactive: 0.151
17,TAGGACCA,inactive: -0.0476
18,CGTGCGAC,inactive: 0.0397
19,AACCGGTG,inactive: -0.145
20,ACTGTTCG,inactive: 0.108
21,ATAACGCC,inactive: -0.0556
22,TAAACGTA,inactive: 0.168
23,AACTCTTC,inactive: -0.00813
24,ATCGCGTA,inactive: 0.0324
25,ACGTGTGA,inactive: 0.155

row,Sequence,PBM E-score
1,AGACGAGG,inactive: -0.108
2,AGTAATTA,inactive: 0.235
3,CCTCCTTA,inactive: -0.127
4,GAGAAACC,inactive: -0.0114
5,ACCTATGG,inactive: -0.0717
6,CTATCCCA,inactive: -0.0284
7,CACTCGCG,inactive: -0.182
8,TATTCACA,inactive: 0.123
9,CGGGAATC,inactive: -0.164
10,GCTGGGCC,inactive: -0.344
11,CTCGTACA,inactive: 0.238
12,TAGTTTGA,inactive: 0.0652
13,CCTCTTAG,inactive: -0.0358
14,CTGGTTAA,inactive: 0.12
15,GGAATAAC,inactive: 0.0351
16,ATGTGGAA,≥ 0.149
17,CCCTCCGC,inactive: -0.201
18,AATACACA,active: 0.311
19,GGCATCGA,inactive: -0.119
20,CGGCCCAC,inactive: -0.234
21,AGACGCCG,inactive: -0.178
22,GAAGCCGA,inactive: -0.0895
23,TAGGGATA,inactive: -0.00992
24,CAACTGAG,inactive: 0.0727
25,CGGTCAAC,inactive: -0.0213

row,Sequence,PBM E-score
1,GACAACCA,inactive: 0.297
2,TAGCGCCA,inactive: -0.149
3,ACTTCAGA,inactive: 0.00584
4,ATGTACTA,active: 0.398
5,ACCTTTAG,inactive: -0.0647
6,CCGTGTTA,active: 0.321
7,ACTAAGGC,inactive: -0.121
8,CGTCACTA,inactive: 0.0243
9,AGCGGCAG,inactive: -0.138
10,CCAATCAG,inactive: -0.0909
11,AAAGGTCT,inactive: -0.0899
12,AGAGTGTA,inactive: 0.0977
13,ATAGAACA,inactive: 0.282
14,CCTGTTAA,inactive: 0.188
15,ATCACGCA,inactive: 0.069
16,AAAGCGCT,inactive: -0.0583
17,TAGAGGAA,inactive: -0.0403
18,ATTTCCCG,inactive: 0.0165
19,ACGCGGAT,≥ 0.00954
20,CGTCGGGA,inactive: 0.0166
21,CTGGTCGC,inactive: -0.106
22,GTAGCGGA,inactive: -0.0315
23,GACGCTGA,inactive: -0.126
24,ACGGCCAT,inactive: -0.18
25,GCCCCCGC,inactive: -0.272

row,Sequence,PBM E-score
1,CGAGCAAC,inactive: -0.00148
2,TCCATGAA,≥ 0.0658
3,GGTTACCA,inactive: 0.041
4,AGCAAGCA,inactive: -0.0359
5,AACTGTGT,inactive: 0.22
6,GCTTGACA,inactive: 0.139
7,CTGTTAAG,inactive: 0.127
8,CACCGCTA,inactive: -0.113
9,ATTGTTAA,inactive: 0.21
10,CGGCCAAA,inactive: -0.129
11,TCACGTAA,inactive: 0.0905
12,GTCGATTA,inactive: 0.107
13,CACGGCTG,inactive: -0.0979
14,GTAAGGCA,≥ 0.108
15,AGGTCCCG,inactive: -0.181
16,GTCCATCA,inactive: -0.0212
17,GATCCCGA,inactive: -0.159
18,ATATGGAG,inactive: 0.027
19,CCCCCGGC,inactive: -0.33
20,AGCTGGGG,inactive: -0.232
21,CTGGGAGA,inactive: -0.143
22,CAGCCCCC,inactive: -0.328
23,ACCGTACC,inactive: -0.0578
24,GGGATCGA,inactive: 0.011
25,CGCACCAA,inactive: -0.12

row,Sequence,PBM E-score
1,ACGAATTC,inactive: 0.0393
2,GTACCGAA,inactive: 0.0678
3,CGTCCTCA,inactive: -0.105
4,AAAAACAA,inactive: 0.248
5,GGCTGAGA,inactive: -0.107
6,ATGGCGAA,≥ -0.0267
7,ATGCAGAG,inactive: -0.107
8,CCATGGTC,inactive: -0.0618
9,ACCCCCTC,inactive: -0.287
10,GACAACTC,inactive: 0.191
11,AATCATTA,inactive: 0.147
12,CCTCAGTA,inactive: -0.12
13,GAGGATAC,inactive: 0.0175
14,CCAGTTCA,inactive: -0.06
15,TACAGAAA,inactive: 0.17
16,CGTAGTCA,inactive: 0.0132
17,CGACCTCC,inactive: -0.138
18,ACTTGAAT,inactive: 0.143
19,ACCAGCCG,inactive: -0.125
20,CAGGTGGC,inactive: -0.104
21,AGGCTTGA,inactive: -0.122
22,ATCTCAAG,inactive: 0.0464
23,CGACGTGA,inactive: 0.0677
24,AGCTCAAA,inactive: -0.0752
25,CGGTCAAA,inactive: 0.0311

row,Sequence,PBM E-score
1,GGAGGAAC,inactive: -0.0554
2,ATAAGGCG,inactive: -0.112
3,CGGCACCC,inactive: -0.203
4,CCGGTCAA,inactive: -0.0503
5,CATCGCGA,inactive: 0.0249
6,CAAGACTC,inactive: 0.0253
7,AACAACGG,inactive: 0.203
8,ATATACAC,active: 0.348
9,CCTACTTC,inactive: -0.0288
10,AAAGGGGT,inactive: -0.119
11,CTGCATCA,inactive: 0.031
12,ATCAGCGC,inactive: -0.0347
13,GCCTCCGA,inactive: -0.131
14,AGACACTG,inactive: 0.119
15,CCGCTCAA,inactive: -0.19
16,CGTAGTAC,inactive: 0.124
17,CCTGTGTC,inactive: 0.125
18,AGGGGAAG,inactive: -0.073
19,AGTCAATG,inactive: 0.0578
20,CTAAATAG,inactive: 0.0426
21,GATCGGGA,inactive: -0.122
22,TGATCGCA,≥ 0.0769
23,ACGGTCGG,inactive: -0.1
24,CTAGAAAC,inactive: -0.0157
25,GGTGCCGA,inactive: -0.111

row,Sequence,PBM E-score
1,AAGAAAGA,inactive: 0.0126
2,AATGCCCT,inactive: -0.111
3,CCATGTAG,inactive: 0.268
4,ATCTGACA,inactive: 0.269
5,AGCTCTCG,inactive: -0.217
6,CCCTCAAC,inactive: -0.204
7,CGATATCG,≥ 0.133
8,ACAGAAAC,inactive: 0.172
9,CGTATCTA,inactive: -0.0339
10,CAGGTAAC,inactive: 0.125
11,AGGAGTGC,inactive: -0.0928
12,GAAACCTC,inactive: -0.051
13,AGATGAGG,inactive: -0.179
14,TCACGACA,inactive: 0.218
15,ACGACTCG,inactive: -0.0644
16,AGTAGGCA,inactive: 0.004
17,AGTGACAA,inactive: 0.255
18,CCTCTCCG,inactive: -0.267
19,CCCAAAGC,inactive: -0.199
20,AGTAACCC,inactive: -0.00218
21,AACTATTG,inactive: 0.163
22,AAGCCATT,inactive: 0.0303
23,TTACGAAA,inactive: 0.0668
24,GATACTAC,inactive: 0.175
25,ATAGCTTC,inactive: -0.0833
